Reference: the RNAGym collection of RNA variant scans (doi:10.1093/nar/gkz1192)
Read counts are not given, so values of variants with three or more changes are uncertain.

B1: CPEB3 Ribozyme (parent)
chain: UAACAGGGGGCCACAGCAGAAGCGUUCACGUCGCAGCCCCUGUCAGAUUCUGGUGAAUCUGCGAAUUCUGCUGUAUAUCUC

Variants of: B1
Assay: self-cleavage, relative activity (ratio to wild type); higher = more cleavage; in vitro, sequencing
Procedure, shortened: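 Relative activity was defined as the cleaved/total read fraction for a variant divided by the same fraction for the unmutated ribozyme. CPEB3 self-cleaving ribozyme libraries were made by rounds of error-prone PCR, barcoded, and transcribed in vitro with T7 RNA polymerase for 5 hours at 37°C, and cleavage ran through transcription plus a 15 min DNase I step before EDTA. Illumina sequencing of template-switched reverse transcripts gave the reads, and DNA sequencing mapped the barcodes. Averages come from three batches, using variants with at least 5 reads.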

| Variant | self-cleavage |
| --- | --- |
| A15U A28G C71A U74A A75U | 0.11 |
| A15U A56U U58A U72C | 0.11 |
| A15G A35U A64U G73A | 0.16 |
| A15G U43C A56U U74A | 0.34 |
| A15G G19A U60A U78C | 0.3 |
| A15U C40U U43A U72A U80C | 1 |
| A15G C17A U41C G63C C79A | 0.38 |
| A15G A28U A45U A64G | 0.11 |
| A15G G36U C44U U72A U74C | 0.06 |
| A15U A21G U58C | 0.09 |
| A15U A18G C32A A35G C37A | 0.05 |
| A15U C37A U51C | 0.14 |
| A15G A45U G46C | 0.39 |
| A15G U31C U78C | 0.26 |
| A15U A18U A20C A28G | 0.28 |
| A15G G19A U31C U58C G73A | 0.06 |
| A15G U26C C39A U48C U60C | 0.08 |
| A15G U48C U67C U69C | 0.14 |
| A15U A20G A65U | 0.08 |
| A15G U26C C81U | 0.6 |
| A15G G19A G55U A56G U80C | 0.23 |
| A15U C38U G63A | 0.46 |
| A15G A45G U49G | 0.13 |
| A15G U41C A57G U67A | 0.18 |

| Variant | self-cleavage |
| --- | --- |
| A15G U26C A28U A35U U60C G61U U69C | 0.12 |
| A15U C44A A45G | 0.22 |
| A15U A21G U60A | 0.21 |
| A15G U25C U26A A64G U78C C81G | 0.22 |
| A15U G33U C38U | 0.13 |
| A15G U26A G55A | 0.51 |
| A15U C44U U60A U74C A75G | 0.11 |
| A15U A18G A56G A57U U80A | 0.23 |
| A15U A21G A77G U80C | 0.31 |
| A15G A28G U66C A75G | 0.19 |
| A15U A20U U72C A77G | 0.18 |
| A15U A21U U49C | 0.31 |
| A15G U43A U48C U69C | 0.32 |
| A15G U41C A45U U60A U78C | 0.92 |
| A15G C27U U60A | 0.24 |
| A15G A28G U67C | 0.22 |
| A15G A47G A64G | 0.49 |
| A15G A47G A56U C59U U80G | 0.2 |
| A15G U49A A65U | 0.23 |
| A15G U54C A56G U78C | 0.43 |
| A15G U25C U26A | 0.31 |
| A15U U25C A45U A77U U78C | 0.1 |
| A15G G52U U58G A75U U78C | 0.31 |
| A15U A18G G19A A28G A45U U74A | 0.08 |

| Variant | self-cleavage |
| --- | --- |
| A15U A47G A75U U78C | 0.98 |
| A15G G24A C38A U43C A56G A65G | 0.19 |
| A15U A20G C40A A56G A64G A75U U78C | 0.06 |
| A15G G22C U51G | 0.28 |
| A15G A28U A35U G73A U80C | 0.83 |
| A15U A18G A35U U41C U43C U69C | 0.29 |
| A15G A47G U54C | 0.84 |
| A15U C40U A57G U67C U78A | 0.05 |
| A15G U51A A57U | 0.47 |
| A15G G36C U67C | 0.16 |
| A15G U41C U54C U67A | 0.36 |
| A15G U25C C37U A77U | 0.51 |
| A15G G16C G52C | 0.14 |
| A15U A64G U66C U72C | 0.2 |
| A15U A20G C29U A77G | 0.43 |
| A15G U31A U80A | 0.59 |
| A15U A20G C39A U43C | 0.36 |
| A15G G19U G63A A64U U66C | 0.13 |
| A15G A75U U80C | 1.01 |
| A15G U72A C81A | 0.7 |
| A15G A28G U43C A65G U69A | 0.04 |
| A15G U48C U60C U76C | 0.21 |
| A15G U26A U48C A56C | 0.12 |
| A15U C23A U31A | 0.2 |

| Variant | self-cleavage |
| --- | --- |
| A15U C37A A64G | 0.21 |
| A15G G33A U66C | 0.74 |
| A15U A47C A56G U66A A77G | 0.09 |
| A15G U49A C71G U78C | 0.09 |
| A15U C17U C32A A35U G53A | 0.04 |
| A15U C27A U31A U49C U58C A64U U74A | 0.02 |
| A15G U25C U43C A45U U51C U69G U76C | 0 |
| A15U G55A A77G | 0.35 |
| A15G G36U U41A U49A U67G U72A | 0.07 |
| A15U G30A C34U | 0.07 |
| A15U G55A A56U C62U | 0.09 |
| A15G U25C A45G | 0.43 |
| A15U C37U U43A A45G | 0.31 |
| A15U A20G U31A U72A A77G | 0.29 |
| A15U C17U U31C U51A U69A | 0.09 |
| A15G U26A A45G U58C A75G | 0.13 |
| A15U A21G U48A U51G U66A U80A | 0.06 |
| A15G G30A U48C A64G U69A | 0.06 |
| A15G G19U U31A U58C U67A U78C | 0.11 |
| A15G U41C U60C | 0.27 |
| A15G A64G C71A | 0.15 |
| A15U A20G C23A A56G U80C | 0.08 |
| A15G U60G A77U | 0.25 |
| A15G U26C A45C G70C | 0.2 |

| Variant | self-cleavage |
| --- | --- |
| A15U C39U U48C C71G | 0.04 |
| A15G G16C A35U U43C U67A U69C | 0.41 |
| A15U C23U U26C U49C G63A A65G | 0.04 |
| A15G U41C G42U U54A | 0.13 |
| A15U C40U A64G U78C | 0.14 |
| A15G U58C A64G U69A | 0.35 |
| A15U C50G U54C A64U U72A U78C | 0.1 |
| A15G A45U U49G U58A | 0.08 |
| A15U A20G U54C U69A U74C U76A | 0.26 |
| A15G U67A A77G C79A | 0.51 |
| A15U A35U A64G | 0.31 |
| A15G U54C A56G U66C | 0.22 |
| A15G U25C C27A A75U | 0.34 |
| A15U A20G U80A | 0.25 |
| A15G C23U U60C U67A | 0.09 |
| A15G U26C A64U U78C | 0.19 |
| A15G G24C A45G | 0.27 |
| A15U C23G U31G A56G U60C A65G | 0.09 |
| A15U A28U A64U U69C | 0.18 |
| A15G A65G U69C | 0.27 |
| A15G G19C A21G A57G | 0.18 |
| A15G C50U A64U | 0.25 |
| A15G U26C A35U A45G U60C U69C | 0.18 |
| A15G U43G U49C | 0.31 |

| Variant | self-cleavage |
| --- | --- |
| A15U U25A C38U A64C U72A | 0.12 |
| A15G U25C A28U | 0.15 |
| A15G C38U U69A | 0.55 |
| A15U U25A A35G U51C G61A | 0.11 |
| A15G A45U G46A U78C U80C | 0.08 |
| A15U C29U U69G | 0.41 |
| A15U A28U U60C U74C | 0.1 |
| A15U C23A U58G | 0.17 |
| A15U G24A A35U | 0.17 |
| A15U C29U U43C A64G U69C U72C | 0.04 |
| A15G C32U U51G A56G | 0.34 |
| A15G U26C A45G U54C | 0.38 |
| A15G C29U A45U A64G | 0.09 |
| A15G G19U A28U U31A A57U U58C U67A | 0.07 |
| A15G A28U U54A A56U A64G | 0.13 |
| A15G U25C A45G A47G | 0 |
| A15U A35G U60A | 0.72 |
| A15U A21G U41C U58C | 0.43 |
| A15G G42A U43C U69C | 0.17 |
| A15G C29A U41C U74C A77U | 0.55 |
| A15G U26C U69A | 0.16 |
| A15G U26A A65G U66C A75G C81A | 0.28 |
| A15G U31A A56G A64G | 0.48 |
| A15G A35U U41C U48A U60G U72A | 0.04 |

| Variant | self-cleavage |
| --- | --- |
| A15G C34A U69C A77U | 0.13 |
| A15G U49A A75U U80C | 0.59 |
| A15G A56U U69A | 0.19 |
| A15G C17U A28G A45G | 0.37 |
| A15G U43C A57U A64G U78C | 0.09 |
| A15U A21G C68G | 0.17 |
| A15G G24C U31A U51C | 0.06 |
| A15U A35U U66C | 0.27 |
| A15G U48C U66C U69G | 0.55 |
| A15G U41C G63U U72C A75G | 1.27 |
| A15U U25C A65G | 0.22 |
| A15U C17U G24A U25C U51C | 0.38 |
| A15G G24A A35U C44U G52A U69C U72A | 0.05 |
| A15U U25C A28G U54C A64C | 0.1 |
| A15G G42C A64G | 0.31 |
| A15G A56U C59U | 0.11 |
| A15G U25C U26A U43C A75U | 0.08 |
| A15G U41G U67C U69C U72C | 0.21 |
| A15U C29U U54C U80C | 0.15 |
| A15U A28G U31C | 0.48 |
| A15G U25C A35U C39A | 0.2 |
| A15U U25C G63U | 0.22 |
| A15G U41C C59A U78C | 0.34 |
